Counter-ions that a name gives are not always drawn.

By IC50 is commonly meant the point on the concentration scale where inhibition reaches its midpoint.

The test system of this test is MLKL phosphorylation, HT29-L23 human colorectal adenocarcinoma cells. The experiment in a line: cells. Conditions: read-out: pMLKL HCS Cell Assay (IC50, uM).
Turning to `Cc1cc(F)c(-c2cc(C(F)(F)F)c3c(N)ncnn23)cc1C(=O)N[C@@H]1CN(C(=O)c2ncc(F)cc2F)C[C@@H]1F` [Example 819, 5-[4-amino-5-(trifluoromethyl)pyrrolo[2,1-f][1,2,4]triazin-7-yl]-N-[(3R,4S)-1-(3,5-difluoropyridine-2-carbonyl)-4-fluoropyrrolidin-3-yl]-4-fluoro-2-methylbenzamide], the IC50 was 0.014 µM.

Regarding `CC(C)C(=O)N1C[C@H](F)[C@H](NC(=O)c2ccc(F)c(-c3cc(C(F)(F)F)c4c(N)ncnn34)c2)C1` [Example 420, 3-[4-amino-5-(trifluoromethyl)pyrrolo[2,1-f][1,2,4]triazin-7-yl]-4-fluoro-N-[(3R,4S)-4-fluoro-1-(2-methylpropanoyl)pyrrolidin-3-yl] benzamide, TFA], the IC50 came to 0.14 µM.

As for `Nc1ncnn2c(-c3cc(C(=O)N[C@@H]4CN(C(=O)CC(F)(F)F)C[C@@H]4F)c(Cl)cc3F)cc(CN3CC(F)(F)C3)c12` [Example 1307, 5-{4-amino-5-[(3,3-difluoroazetidin-1-yl)methyl]pyrrolo[2,1-f][1,2,4]-triazin-7-yl}-2-chloro-4-fluoro-N-[(3R,4S)-4-fluoro-1-(3,3,3-trifluoro-propanoyl)pyrrolidin-3-yl]benzamide], the IC50 was determined as 0.00089 µM.

As for `COc1ncc(-c2cc(C(F)(F)F)c3c(N)ncnn23)cc1C(=O)N1CCCC(Cc2cccc(F)c2)C1` (centres unmarked) [Example 129, 7-(5-{3-[(3-fluorophenyl)methyl]piperidine-1-carbonyl}-6-methoxypyridin-3-yl)-5-(trifluoromethyl)pyrrolo[2,1-f][1,2,4]triazin-4-amine], the IC50 is 0.022 µM.

Turning to `[2H]C([2H])([2H])Oc1nc(C)c(-c2cc(C(F)(F)F)c3c(N)ncnn23)cc1C(=O)N[C@@H]1CN(C(=O)c2ccc(F)cc2)C[C@@H]1F` [Example 46, 5-[4-amino-5-(trifluoromethyl)pyrrolo[2,1-f][1,2,4]triazin-7-yl]-N-[(3R,4S)-4-fluoro-1-(4-fluorobenzoyl)pyrrolidin-3-yl]-2-(deutero)methoxy-6-methylpyridine-3-carboxamide], the IC50 was 0.109 µM.

Regarding `CCc1ccc(-c2cc(C(F)(F)F)c3c(N)ncnn23)c(F)c1C(=O)N[C@@H]1CN(C(=O)CC(O)(C(F)(F)F)C(F)(F)F)C[C@@H]1F` [Example 571, 3-[4-amino-5-(trifluoromethyl)pyrrolo[2,1-f][1,2,4]triazin-7-yl]-6-ethyl-2-fluoro-N-[(3R,4S)-4-fluoro-1-[4,4,4-trifluoro-3-hydroxy-3-(trifluoromethyl)butanoyl]pyrrolidin-3-yl]benzamide], the IC50 came out at 0.014 µM.

With `COc1c(F)cc(-c2cc(C(F)(F)F)c3c(N)ncnn23)cc1C(=O)N[C@@H]1CN(C(=O)[C@@](C)(O)C(F)(F)F)C[C@@H]1F` [Example 686, 5-[4-amino-5-(trifluoromethyl)pyrrolo[2,1-f][1,2,4]triazin-7-yl]-3-fluoro-N-[(3R,4S)-4-fluoro-1-[(28)-3,3,3-trifluoro-2-hydroxy-2-methylpropanoyl]pyrrolidin-3-yl]-2-methoxybenzamide], the IC50 was 0.0027 µM.

On to `CCc1ccc(-c2cc(C(F)(F)F)c3c(N)ncnn23)c(F)c1C(=O)N[C@@H]1CN(C(=O)C2CC(F)(F)C2)C[C@@H]1F` [Example 741, 3-[4-amino-5-(trifluoromethyl)pyrrolo[2,1-f][1,2,4]triazin-7-yl]-N-[(3R,4S)-1-(3,3-difluorocyclobutanecarbonyl)-4-fluoropyrrolidin-3-yl]-6-ethyl-2-fluorobenzamide], for which the concentration for half-maximal inhibition (IC50) came to 0.0061 µM.

Consider `COc1ncc(-c2cc(CN3CCC(F)(F)CC3)c3c(N)ncnn23)cc1C(=O)N[C@@H]1CN(C(=O)OCC(F)(F)C(F)C(F)(F)F)C[C@@H]1F` (stereo partly drawn) [Example 1528, 2,2,3,4,4,4-hexafluorobutyl (3R,4S)-3-(5-{4-amino-5-[(4,4-difluoropiperidin-1-yl)methyl]pyrrolo[2,1-f][1,2,4]triazin-7-yl}-2-methoxypyridine-3-amido)-4-fluoropyrrolidine-1-carboxylate], for which the IC50 is 0.078 µM.

Regarding `COc1ncc(-c2cc(C(F)(F)F)c3c(N)ncnn23)cc1C(=O)NC1CN(C(=O)C2CC(F)C2)C[C@@H]1F` (single isomer, unassigned) [Example 348, 5-(4-amino-5-(trifluoromethyl)pyrrolo[2,1-f][1,2,4]triazin-7-yl)-N-(4-fluoro-1-(3-fluorocyclo-butane-1-carbonyl)pyrrolidin-3-yl)-2-methoxynicotinamide], the IC50 turned out to be 0.0064 µM.

On to `COc1ccc(-c2cc(C(F)(F)F)c3c(N)ncnn23)cc1C(=O)N[C@@H]1CN(C(=O)C2CC(F)(F)C2)C[C@@H]1F` [Example 1128, 5-[4-amino-5-(trifluoromethyl)pyrrolo[2,1-f][1,2,4]triazin-7-yl]-N-[(3R,4S)-1-(3,3-difluorocyclobutanecarbonyl)-4-fluoropyrrolidin-3-yl]-2-methoxybenzamide], for which the IC50 was 0.01 µM.

In the case of `Cc1ncc(-c2cc(C(F)(F)F)c3c(N)ncnn23)cc1C(=O)N1CC(O)CC(O)(Cc2ccc(F)cc2)C1` (centres unmarked) [Example 1750, (5-(4-amino-5-(trifluoromethyl)pyrrolo[2,1-f][1,2,4]triazin-7-yl)-2-methylpyridin-3-yl)(3-(4-fluorobenzyl)-3,5-dihydroxypiperidin-1-yl)methanone], the IC50 turned out to be 0.194 µM.

For `[2H]C([2H])([2H])Oc1ncc(-c2cc(CN3CC(F)(F)C3)c3c(N)ncnn23)cc1C(=O)N[C@@H]1CN(C(=O)CC(C)C)C[C@@H]1F` [Example 1285, 5-{4-amino-5-[(3,3-difluoroazetidin-1-yl)methyl]pyrrolo[2,1-f][1,2,4]triazin-7-yl}-N [(3R,4S)-4-fluoro-1-(3-methylbutanoyl)pyrrolidin-3-yl]-2-(methoxy-d3)nicotinamide], the IC50 came to 0.0006 µM.

Turning to `COc1ncc(-c2cc(C(F)(F)F)c3c(N)ncnn23)cc1C(=O)N[C@@H]1CN(S(=O)(=O)c2ccc(C)cc2)C[C@@H]1F` [Example 1478, 5-[4-amino-5-(trifluoromethyl)pyrrolo[2,1-f][1,2,4]triazin-7-yl]-N-[(3R,4S)-4-fluoro-1-(4-methylbenzenesulfonyl)pyrrolidin-3-yl]-2-methoxypyridine-3-carboxamide], the IC50 is 0.221 µM.

As for `Nc1ncnn2c(-c3ccc(OC(F)(F)F)c(C(=O)N[C@@H]4CN(C(=O)C5CC(F)(F)C5)C[C@@H]4F)c3)cc(C(F)(F)F)c12` [Example 1054, 5-[4-amino-5-(trifluoromethyl)pyrrolo[2,1-f][1,2,4]triazin-7-yl]-N-[(3R,4S)-1-(3,3-difluorocyclobutanecarbonyl)-4-fluoropyrrolidin-3-yl]-2-(trifluoromethoxy)benzamide], the IC50 was 0.083 µM.

For `Nc1ncnn2c(-c3cncc(C(=O)NCC[C@@H](O)c4ccc(Cl)cc4)c3)cc(C(F)(F)F)c12` [Example 274, 5-[4-amino-5-(trifluoromethyl)pyrrolo[2,1-f][1,2,4]triazin-7-yl]-N-[(3R)-3-(4-chlorophenyl)-3-hydroxypropyl]pyridine-3-carboxamide], the IC50 came out at 0.026 µM.

`COc1ncc(-c2cc(C(F)(F)F)c3c(N)ncnn23)cc1C(=O)N[C@@H]1CN(C(=O)C2CCC(F)(F)C2)C[C@@H]1F` (stereo partly drawn) [Example 34, 5-[4-amino-5-(trifluoromethyl)pyrrolo[2,1-f][1,2,4]triazin-7-yl]-N-[1-(3,3-difluorocyclopentanecarbonyl)-(3R,4S)4-fluoropyrrolidin-3-yl]-2-methoxypyridine-3-carboxamide]: the IC50 turned out to be 0.028 µM.

For the compound `CC(C(=O)N1C[C@H](F)[C@H](NC(=O)c2cc(-c3cc(C(F)(F)F)c4c(N)ncnn34)cc(F)c2F)C1)C(F)(F)F` (stereo partly drawn) [Example 1335, 5-[4-amino-5-(trifluoromethyl)pyrrolo-[2,1-f][1,2,4]triazin-7-yl]-2,3-difluoro-N-[(3R,4S)-4-fluoro-1-(3,3,3-trifluoro-2-methylpropanoyl)pyrrolidin-3-yl]-benzamide], the IC50 stood at 0.0044 µM.

In the case of `Nc1ncnn2c(-c3ccc(Cl)c(C(=O)N[C@@H]4CN(C(=O)C5CC(F)(F)C5)C[C@@H]4F)c3)cc(C(F)(F)F)c12` [Example 942, 5-[4-amino-5-(trifluoromethyl)pyrrolo[2,1-f][1,2,4]triazin-7-yl]-2-chloro-N-[(3R,4S)-1-(3,3-difluorocyclobutanecarbonyl)-4-fluoropyrrolidin-3-yl]benzamide], the IC50 amounted to 0.005 µM.

Consider `COc1ncc(-c2cc(C(F)(F)F)c3c(N)ncnn23)cc1C(=O)N[C@@H]1CN(C(=O)OC[C@H](C)O)C[C@@H]1F` [Example 1451, (2S)-2-hydroxypropyl (3R,4S)-3-{5-[4-amino-5-(trifluoromethyl)pyrrolo[2,1-f][1,2,4]triazin-7-yl]-2-methoxypyridine-3-amido}-4-fluoropyrrolidine-1-carboxylate], for which the IC50 was 0.099 µM.

As for `COc1ncc(-c2cc(CN3CCC(C(F)(F)F)CC3)c3c(N)ncnn23)cc1C(=O)N[C@@H]1CN(C(=O)C(C)(C)C(F)(F)F)C[C@@H]1F` [Example 1630, 5-(4-amino-5-{[4-(trifluoromethyl)piperidin-1-yl]methyl}pyrrolo[2,1-f][1,2,4]triazin-7-yl)-N-[(3R,4S)-4-fluoro-1-(3,3,3-trifluoro-2,2-dimethylpropanoyl)pyrrolidin-3-yl]-2-methoxypyridine-3-carboxamide], the IC50 was determined as 0.024 µM.

For `COc1ncc(-c2cc(CN3CCC(F)(F)CC3)c3c(N)ncnn23)cc1C(=O)N[C@@H]1CN(C(=O)OC(C)CC(F)(F)F)C[C@@H]1F` (stereo partly drawn) [Example 1505, 4,4,4-trifluorobutan-2-yl (3R,4S)-3-(5-{4-amino-5-[(4,4-difluoropiperidin-1-yl)methyl]pyrrolo[2,1-f][1,2,4]triazin-7-yl}-2-methoxypyridine-3-amido)-4-fluoropyrrolidine-1-carboxylate], the IC50 amounted to 0.0024 µM.

For the compound `COc1ncc(-c2cc(C(F)(F)F)c3c(N)ncnn23)cc1C(=O)N[C@@H]1CN(C(=O)C2CCC(F)(F)CC2)C[C@@H]1F` [Example 300, 5-[4-amino-5-(trifluoromethyl)pyrrolo[2,1-f][1,2,4]triazin-7-yl]-N-[(3R,4S)-1-(4,4-difluorocyclo-hexanecarbonyl)-4-fluoro-pyrrolidin-3-yl]-2-methoxy-pyridine-3-carboxamide], the IC50 was 0.126 µM.

For the origin of these results see patent US11618753B2 (priority 2018, dated 2023).
